# The whole screen tested about 39,000 compounds, of which about 220 (0.56%) showed activity. The list shows a part of the results.
# Tested on: Escherichia coli K-12 BW25113
# Test: relative growth (OD600 normalised to plate interquartile mean) (fraction); higher = less growth inhibition, active = 0.2 or less
# Details: 50 µM; LB; incubation time: overnight (16-24 h)
# 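Further: static incubation at 37 °C against the wild-type strain, values averaged over two biological replicates.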
row,SMILES,relative growth
1,COc1ccc(C#Cc2ccc3c(c2)[C@]2(C(=O)N3)[C@H](C(=O)Nc3nc4ccccc4s3)[C@H]3C(=O)O[C@H](c4ccccc4)[C@H](c4ccccc4)N3[C@@H]2c2ccc(O)cc2)cc1,inactive: 0.997
2,O=C(C[C@@H]1C=C[C@H](NC(=O)CN2CCOCC2)[C@H](CO)O1)NCc1cccc(F)c1,inactive: 0.951
3,CC1(C)CCCC2(C)C1CCC1(C)OCCC12 (stereo not given),inactive: 1.11
4,[N-]=[N+]=Nc1ccccc1[C@H]1OC(c2ccc(OCCCO)cc2)=N[C@@]1(CCS(=O)(=O)c1ccccc1)C(=O)N1CCCCC1,inactive: 1.04
5,COc1ccc(S(=O)(=O)N(C)C[C@H]2OCCCC[C@@H](C)Oc3ccc(NC(=O)NC4CCCCC4)cc3C(=O)N([C@H](C)CO)C[C@@H]2C)cc1,inactive: 1.01
6,O=C(NO)c1cccc(C(=O)N/N=C/[C@H](O)[C@H](O)[C@@H](O)[C@@H](O)CO)c1,inactive: 0.988
7,C[C@@H]1CN([C@@H](C)CO)C(=O)c2cccc(NC(=O)CCCCCC(=O)Nc3ccccc3N)c2O[C@@H]1CN(C)Cc1ccc(C(F)(F)F)cc1,inactive: 1.02
8,C[C@@H]1CCCCO[C@@H](CN(C)C(=O)c2ccccc2)[C@H](C)CN([C@@H](C)CO)C(=O)c2cc(NC(=O)c3ccccc3)ccc2O1,inactive: 1.01
9,C[C@H]1CCCCO[C@@H](CN(C)C(=O)C2CCCCC2)[C@@H](C)CN([C@@H](C)CO)C(=O)c2cc(NC(=O)C3CCCCC3)ccc2O1,inactive: 1.01
10,Cc1noc(C)c1S(=O)(=O)N(C)C[C@H]1Oc2ccc(NS(=O)(=O)c3cccs3)cc2C(=O)N([C@H](C)CO)C[C@H]1C,inactive: 1.04
11,COc1cccc(C#Cc2ccc([C@H]3[C@H](CO)N4C(=O)CN(S(=O)(=O)c5ccccc5C)C[C@@H]34)cc2)c1,inactive: 1.01
12,CCOC(=O)c1cccc(N)c1.CS(=O)(=O)O,inactive: 1.03
13,CNC[C@H]1OCCCC[C@@H](C)Oc2ccc(NC(=O)Nc3ccc(C(F)(F)F)cc3)cc2C(=O)N([C@@H](C)CO)C[C@H]1C,inactive: 0.967
14,COc1ccccc1CN(C)C[C@@H]1OCc2ccccc2-c2c(n(C)c3ccccc23)C(=O)N([C@@H](C)CO)C[C@@H]1C,inactive: 1
15,C[C@H](CO)N1C[C@H](C)[C@H](CN(C)Cc2cccc3c2OCCCO3)OCc2ccccc2-c2c(n(C)c3ccccc23)C1=O,inactive: 1.03
16,COc1cccc(NC(=O)N[C@@H]2C=C[C@@H](CC(=O)N3CCN(C)CC3)O[C@@H]2CO)c1,inactive: 1.01
17,Cc1ccc(S(=O)(=O)N(C)C[C@@H]2Oc3ccc(N(C)C)cc3CC(=O)N([C@H](C)CO)C[C@@H]2C)cc1,inactive: 0.992
18,COc1ccc(NC(=O)N(C)C[C@H]2Oc3ccc(NC(=O)C4CC4)cc3CC(=O)N([C@H](C)CO)C[C@@H]2C)cc1,inactive: 0.872
19,C[C@@H]1CCCCO[C@@H](CN(C)S(=O)(=O)c2ccc(F)cc2)[C@H](C)CN([C@H](C)CO)C(=O)c2cc(NC(=O)Nc3ccc(F)cc3)ccc2O1,inactive: 1.02
20,C[C@H](CO)N1C[C@H](C)[C@@H](CN(C)C(=O)C2CCCCC2)OCCCC[C@H](C)Oc2ccc(NC(=O)Nc3ccccc3)cc2C1=O,inactive: 1.02
21,CN1CCN(C(=O)C[C@@H]2CC[C@@H](NC(=O)Cc3ccccn3)[C@H](CO)O2)CC1,inactive: 0.994
22,O=C(O)C(O)C(O)C(O)C(O)C(=O)O (stereo not given),inactive: 1.07

row,SMILES,relative growth
1,C[C@H](CO)N1C[C@H](C)[C@@H](CN(C)C(=O)Nc2ccc3c(c2)OCO3)OCc2cn(nn2)CCCC1=O,inactive: 0.994
2,CC12CCC(CC1)C(C)(C)O2,inactive: 1.07
3,CC(C)CC#Cc1ccc2c(c1)O[C@H](CN(C)CC1CCOCC1)[C@@H](C)CN([C@@H](C)CO)S2(=O)=O,inactive: 1.03
4,C[C@H]1CN([C@@H](C)CO)S(=O)(=O)c2ccc(-c3cccc(F)c3)cc2O[C@@H]1CN(C)S(C)(=O)=O,inactive: 1
5,C[C@@H]1CN([C@@H](C)CO)S(=O)(=O)c2ccc(C#Cc3cccc(F)c3)cc2O[C@H]1CN(C)S(=O)(=O)c1cn(C)cn1,inactive: 1.03
6,C[C@H](CO)N1C[C@H](C)[C@H](CN(C)C(=O)c2ccncc2)Oc2cc(C#Cc3ccncc3)ccc2S1(=O)=O,inactive: 0.992
7,C[C@H](CO)N1C[C@H](C)[C@H](CN(C)C(=O)c2cnccn2)Oc2cc(Br)ccc2S1(=O)=O,inactive: 0.993
8,O=C(C[C@@H]1C[C@H]2c3cc(NS(=O)(=O)c4ccc(F)cc4)ccc3O[C@H]2[C@H](CO)O1)NC1CCCC1,inactive: 0.986
9,Cl.Clc1ccc(Cn2c(CN3CCCC3)nc3ccccc32)cc1,inactive: 0.92
10,C[C@H]1CN([C@@H](C)CO)C(=O)Cc2cc(NC(=O)C3CC3)ccc2O[C@@H]1CN(C)S(=O)(=O)c1ccccc1,inactive: 0.998
11,Nc1ccc(/C=C/C(=O)NCc2cc3cc(-c4ccc(C(=O)N5CCC(F)(F)CC5)cc4)cc(-c4ccc(F)cc4)c3o2)cn1,inactive: 1.02
12,CCCN(C)C[C@H]1OCCCC[C@H](C)Oc2ccc(NC(=O)Cc3ccccc3)cc2C(=O)N([C@H](C)CO)C[C@H]1C,inactive: 0.977
13,CC(=O)NCCCC[C@@H]1NC(=O)[C@@H]2C[C@H](C(=O)NCCCCN(C)C)[C@H](c3ccc(O)cc3)N2C1=O,inactive: 0.996
14,Cc1cc(CC(=O)O)n(C)c1C(=O)c1ccc(Cl)cc1,inactive: 1.1
15,CN(C)c1nc2c([nH]1)c(=O)[nH]c(=O)n2C,inactive: 0.998
16,O=C1CN(N=Cc2ccc([N+](=O)[O-])o2)C(=O)N1,active: 0.0462
17,CCCNC(=O)N1C[C@H](O)COC[C@@H]2O[C@@H](CC(=O)N3CCN(C)CC3)CC[C@H]21,inactive: 0.98
18,Cc1ccc(S(=O)(=O)N(C)C[C@H]2OCCCC[C@H](C)Oc3ccc(NC(=O)c4ccccc4)cc3C(=O)N([C@@H](C)CO)C[C@H]2C)cc1,inactive: 0.848
19,C=CCSc1nc(=O)cc(N)[nH]1,inactive: 0.961
20,O=C(C[C@@H]1CC[C@@H]2[C@H](COC[C@H](O)CN2C(=O)Nc2ccc(Cl)c(Cl)c2)O1)NCc1ccncc1,inactive: 0.988
21,CN1C(=O)c2cc(NC(=O)c3cscn3)ccc2OC[C@H]2O[C@H](CC(=O)N3CCOCC3)CC[C@H]21,inactive: 0.985
22,COCC(=O)N1C[C@@H](C)[C@H](OC)CN(C)C(=O)c2ccc(NC(=O)Nc3ccccc3)cc2OC[C@@H]1C,inactive: 1.02

row,SMILES,relative growth
1,Cc1ccc(S(=O)(=O)N(C)C[C@@H]2OCCCC[C@@H](C)Oc3ccc(NS(C)(=O)=O)cc3C(=O)N([C@@H](C)CO)C[C@H]2C)cc1,inactive: 0.987
2,C[C@H](CO)N1C[C@H](C)[C@H](CN(C)S(C)(=O)=O)Oc2ncc(C#CC3(O)CCCC3)cc2C1=O,inactive: 0.983
3,COc1ccc(NC(=O)N(C)C[C@H]2OCCCC[C@@H](C)Oc3ccc(NS(=O)(=O)c4ccc(Cl)cc4)cc3C(=O)N([C@@H](C)CO)C[C@H]2C)cc1,inactive: 1.05
4,CC(C)(C)OC(=O)N1CC2(CNC(=O)O2)C1,inactive: 0.876
5,C[C@@H]1CN([C@H](C)CO)C(=O)CCCn2cc(nn2)CO[C@@H]1CN(C)Cc1ccc2c(c1)OCCN2C,inactive: 1.02
6,Cc1ccc(S(=O)(=O)Nc2ccc3c(c2)CC(=O)N([C@@H](C)CO)C[C@H](C)[C@H](CN(C)Cc2ccncc2)O3)cc1,inactive: 0.978
7,COc1c(O)cccc1O,inactive: 0.843
8,C[C@@H]1CCCCO[C@@H](CN(C)S(=O)(=O)c2cn(C)cn2)[C@H](C)CN([C@@H](C)CO)C(=O)c2cc(NC(=O)Nc3ccc(C(F)(F)F)cc3)ccc2O1,inactive: 1.01
9,O=C(N[C@@H]1CC[C@@H](CCNS(=O)(=O)c2ccccc2)O[C@H]1CO)c1cnccn1,inactive: 0.979
10,CC1CCC2(C(=O)O)CCC3(C)C(=CCC4C5(C)CCC(O)C(C)(C)C5CCC43C)C2C1C (stereo not given),inactive: 1.01
11,CC(C)NC(=O)N(C)C[C@H]1Oc2ccc(NS(=O)(=O)c3ccc(F)cc3)cc2C(=O)N([C@@H](C)CO)C[C@@H]1C,inactive: 0.998
12,C[C@@H]1CCCCO[C@H](CN(C)C(=O)Nc2ccc3c(c2)OCO3)[C@H](C)CN([C@H](C)CO)C(=O)c2cc(NS(=O)(=O)c3ccc(F)cc3)ccc2O1,inactive: 0.998
13,CCOc1ccc(S(=O)(=O)[O-])c2cccnc12.[Na+],inactive: 1.1
14,COc1ccc(cc1)CN1C[C@]2(CN(C2)S(=O)(=O)c2cn(cn2)C)c2c([nH]c3cc(ccc23)OC)[C@@H]1CO,inactive: 0.995
15,COCC(=O)NCc1n[nH]c(=O)c2ccccc12,inactive: 0.968
16,Cc1cc2nc3c(=O)[nH]c(=O)nc-3n(CC(O)C(O)C(O)CO)c2cc1C (stereo not given),inactive: 0.984
17,O=C(O)c1ccc(N2CCCS2(=O)=O)cc1,inactive: 1.01
18,C[C@H](CO)N1C[C@H](C)[C@@H](CN(C)S(=O)(=O)c2cn(C)cn2)Oc2cc(C3=CCCCC3)ccc2S1(=O)=O,inactive: 1
19,C[C@H]1CN([C@@H](C)CO)C(=O)c2cc(NC(=O)C3CCCCC3)ccc2O[C@@H]1CN(C)C(=O)Nc1ccc(C(F)(F)F)cc1,inactive: 1.02
20,Nc1ncnc2c1ncn2CCN1CCCCC1,inactive: 0.998
21,Cc1noc(C)c1NC(=O)Nc1ccc2c(c1)CC(=O)N([C@H](C)CO)C[C@H](C)[C@@H](CN(C)Cc1ccc(C(=O)Nc3ccccc3N)cc1)O2,inactive: 0.943
